Measurements taken from PubChem BioAssay AID488969 (Vanderbilt High Throughput Screening Facility, 2010).
In all, about 110,000 compounds were measured (“z-score”: median about -0.1, highest 2% from about 2 on). The list shows a part of the results.

Biological target: Metabotropic glutamate receptor 8 (Rattus norvegicus) (UniProt P70579)
Test: mGluR8 Gi/Go-coupled signaling modulation – cell-based, rat, thallium flux, HTS, primary screen (AID 488969)
Details: HEK293 rat mGluR8, GIRK (G protein-gated inwardly rectifying potassium channel) thallium flux, FluoZin2; at 10 µM; stronger effect = higher value; submaximal glutamate (EC20) added with thallium

Sequence of UniProt P70579 (P70579 whole entry, looked up): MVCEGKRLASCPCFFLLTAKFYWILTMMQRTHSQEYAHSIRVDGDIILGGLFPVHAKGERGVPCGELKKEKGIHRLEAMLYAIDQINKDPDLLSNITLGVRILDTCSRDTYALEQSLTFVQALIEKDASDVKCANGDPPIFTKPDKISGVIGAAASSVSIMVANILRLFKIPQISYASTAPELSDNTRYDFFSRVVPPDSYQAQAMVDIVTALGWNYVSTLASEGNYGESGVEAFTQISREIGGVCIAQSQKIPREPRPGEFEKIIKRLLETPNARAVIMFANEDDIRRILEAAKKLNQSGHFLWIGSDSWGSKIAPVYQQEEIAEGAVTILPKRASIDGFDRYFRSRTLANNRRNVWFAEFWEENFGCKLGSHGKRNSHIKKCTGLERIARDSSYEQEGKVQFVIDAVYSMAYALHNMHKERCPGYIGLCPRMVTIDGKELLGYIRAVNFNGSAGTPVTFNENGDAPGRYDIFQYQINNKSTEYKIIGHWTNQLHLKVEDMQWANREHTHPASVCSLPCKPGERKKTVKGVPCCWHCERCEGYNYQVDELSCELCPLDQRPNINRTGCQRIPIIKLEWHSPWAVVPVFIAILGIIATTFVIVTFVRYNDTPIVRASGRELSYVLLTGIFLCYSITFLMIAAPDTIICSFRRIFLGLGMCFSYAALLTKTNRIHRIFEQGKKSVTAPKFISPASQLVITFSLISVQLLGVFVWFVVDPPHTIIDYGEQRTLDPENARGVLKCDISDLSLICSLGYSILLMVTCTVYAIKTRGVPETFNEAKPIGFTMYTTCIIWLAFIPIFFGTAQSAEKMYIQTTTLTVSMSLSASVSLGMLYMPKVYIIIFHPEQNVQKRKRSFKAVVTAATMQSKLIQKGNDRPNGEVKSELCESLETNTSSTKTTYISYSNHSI

| SMILES | z-score |
| --- | --- |
| COC(=O)C1=C(C)N(c2ccccc2)/C(=C/c2cccs2)C1=O | 1.34 |
| Cc1noc(C)c1COc1cccc(C(=O)Oc2ccc3c(c2)OCO3)c1 | -1.41 |
| O=C(NCCc1ccccc1)c1ccc(OCCOc2ccccc2)cc1 | 0.233 |
| COc1ccccc1S(=O)(=O)Cc1ccc(C(=O)NC2CCCCC2)o1 | -0.107 |
| CCOc1ccc(/C(O)=C2/C(=O)C(=O)N(CCN(C)C)C2c2ccccc2)cc1Cl (stereo not given) | -0.211 |
| COCCNC(=O)C(OC(=O)c1ccco1)c1ccccc1OC (stereo not given) | -0.951 |
| c1coc(-c2nc(-c3ccco3)c(-c3ccco3)nc2-c2ccco2)c1 | -0.254 |
| O=S(=O)(c1ccc(C2=CSC3=NCCN23)cc1)N1CCOCC1 | 0.287 |
| Fc1ccc(Cn2nnc(-c3ccc(CN4CCOCC4)cc3)n2)cc1 | -0.256 |
| CS(=O)(=O)NCCCNc1c(Cl)cccc1[N+](=O)[O-] | -0.0993 |
| CN(C)C(=O)c1cc(Br)ccc1Cl | -0.362 |
| CN1CCN(c2nc(C#N)cc(-c3ccccc3)n2)CC1 | 0.245 |
| O=C(Nc1nncs1)c1ccc(N2C(=O)C3C4C=CC(C4)C3C2=O)cc1 (stereo not given) | 0.679 |
| O=C(Nc1nc2n(n1)C(c1ccccc1)C=C(c1ccccc1)N2)c1ccco1 (stereo not given) | -0.857 |
| O=c1[nH][nH]c(C(F)(F)F)c1C=Nc1ccc(Cl)cc1 | 0.158 |
| C=CCNC(=O)c1ccncc1 | -0.272 |
| Cc1cc(C)cc(NS(=O)(=O)c2ccc3[nH]c(=O)[nH]c3c2)c1 | 0.711 |
| Nc1nnc(CC(=O)N2CCCCC2)s1 | 0.48 |
| N#Cc1c(NC(=O)c2cc(-n3cnnc3)ccc2Cl)sc2c1CCCC2 | -0.401 |
| COC(=O)C1NN=C(C(=O)c2ccccc2)C1c1ccccc1 (stereo not given) | -0.624 |
| N#CCSc1nnc(-c2ccccc2)c(-c2ccccc2)n1 | -0.91 |
| Cc1ccc(C)n1-n1cnc2sc3c(c2c1=O)CCCCC3 | -0.178 |
| Cc1ccc2cc(C)c3nnc(SCC(=O)c4cccs4)n3c2c1C | -0.448 |

| SMILES | z-score |
| --- | --- |
| CCc1ccc(C2(O)CC(C(F)(F)F)=NN2C(=O)Cc2ccc([N+](=O)[O-])cc2)cc1 (stereo not given) | -0.289 |
| Cc1ccccc1CSc1nnc(-c2cccs2)n1Cc1ccco1 | -1.02 |
| CCN(CC)c1ccc(C2C3CCCCC3(O)CCN2CC(=O)N2CCCCC2)cc1 (stereo not given) | -0.0629 |
| CC(=O)/C(=N\Nc1ccc(Cl)cc1Cl)Sc1nnc(-c2ccccc2)n1-c1ccccc1 | -0.235 |
| Cc1onc(-c2ccccc2)c1C(=O)NCc1cccs1 | 0.654 |
| O=C1Nc2ccc([N+](=O)[O-])cc2C1(O)N1CCCCCC1 (stereo not given) | 0.0674 |
| O=C(NN1C(=O)C2C3C=CC(C4CC34)C2C1=O)c1cccc(Cl)c1 (stereo not given) | -0.529 |
| COC(=O)Cc1ccc(NC(=S)N2CCN(c3cccc(O)c3)CC2)cc1 | -0.238 |
| Cc1ccc(/C=N/NC(=O)Cn2nccc2C)o1 | -0.0618 |
| CNC(=O)C1=C(C)Nc2nc3ccccc3n2C1c1cccc(OC)c1 (stereo not given) | -0.775 |
| Cc1ccc(OCc2nc(-c3ccc(Cl)cc3)n[nH]2)cc1 | 0.00698 |
| COc1ccccc1CNC(=O)c1cccs1 | -0.436 |
| O=C(CCN1C(=O)C2C3C=CC(C3)C2C1=O)Nc1ccc(F)cc1 (stereo not given) | -0.00554 |
| O=C(O)/C=C\C(=O)Nc1ccccc1C#Cc1ccc(Br)cc1 | -0.569 |
| COc1ccc(OC)c(NC(=O)CS(=O)(=O)c2ccccc2)c1 | 0.415 |
| NNc1nc2c(Cl)c(Cl)ccc2s1 | -0.414 |
| O=C(CSc1nnc(-c2ccncc2)n1CCc1ccccc1)NCc1ccccc1 | -0.255 |
| COc1ccc(C(=O)/C=C2/c3ccccc3CC(C)(C)N2C)cc1OC | -0.481 |
| CCCc1cc(=O)oc2c(CN3CCCC3)c(O)c(Cl)cc12 | -0.219 |
| CN(C)/C=N/c1c(C#N)nnn1Cc1ccccc1 | 1.84 |
| Cc1ccc(Cn2cccc(NC(=O)NCc3ccccc3)c2=O)cc1 | -0.0634 |
| Cc1cc(=O)[nH]c(SCC(=O)Nc2nnc(CC(C)C)s2)n1 | -1.24 |
| CC(CCO)Nc1nc2c(c(=O)n(C)c(=O)n2C)n1Cc1cccc(Br)c1 (stereo not given) | -0.171 |

| SMILES | z-score |
| --- | --- |
| Cc1ccc(S(=O)(=O)NCCC(=O)Nc2nnc(C)s2)cc1 | -0.149 |
| O=C(CCc1c[nH]c2ccccc12)NCc1ccc2c(c1)OCO2 | -0.143 |
| COC(=O)c1cc(-c2ccccc2)on1 | -1.87 |
| Cc1cc(C)cc(C(=O)OCC(=O)Nc2cccc(S(=O)(=O)NC3=NCCCCC3)c2)c1 | 0.0544 |
| CCCCOC(=O)CSc1nnc(-c2ccc(Cl)cc2Cl)o1 | -2.67 |
| CCCn1c(=O)[nH]c(=O)c2c1nc(-c1ccc3c(c1)OCCO3)n2CCN1CCOCC1 | 1.07 |
| CC(=O)c1ccc(NC(=S)N2CCN(CCN3C(=O)c4cccc5cccc(c45)C3=O)CC2)cc1 | -0.572 |
| COc1ccc(NC(=O)NCc2ccncc2)cc1 | -0.208 |
| CCCCOC(=O)Nc1cccc(Cl)c1C | 0.0745 |
| O=C(NNC(=O)c1cc(-c2ccccc2)nc2ccccc12)Nc1cccc(Cl)c1 | -0.263 |
| COc1ccc(-c2cc(C(F)(F)F)nc(N3CCOCC3)n2)cc1 | -0.167 |
| COc1cccc(-c2cc3c(=O)n(-c4ccccc4)c(=S)[nH]c3s2)c1 | 0.0948 |
| O=C(c1ccc2c(c1)OCCO2)N1CCCCC1 | -0.102 |
| Cc1ccc(S(=O)(=O)Nc2ccc3oc(=O)sc3c2)c(C)c1 | -0.162 |
| N#Cc1c(Cl)nc(SCc2ccccc2)nc1-c1ccccc1 | -1.25 |
| O=C(c1cc(-c2ccco2)nn1-c1cccc(Cl)c1)N1CCCCC1 | -0.886 |
| COc1ccc(S(=O)(=O)N2CCN(C(=O)c3c(C)nn(-c4ccccc4)c3Cl)CC2)cc1 | 0.514 |
| CNC(=O)COc1ncnc2sccc12 | -0.352 |
| CCCCCCCCC(=O)Nc1cc(C)ccc1OC | 0.909 |
| O=C(N/N=C/c1ccc(Cl)cc1)c1cc2c(s1)-c1ccccc1CC2 | 0.0437 |
| COC(=O)CC/C(C)=N\Nc1ccc([N+](=O)[O-])cc1[N+](=O)[O-] | -0.962 |
| CCOc1ccc(Nc2oc(-c3ccccc3Cl)nc2C#N)cc1 | -0.217 |
| N#Cc1c(-c2ccc(F)cc2)cc(C2CC2)nc1SCC(=O)c1cccs1 | -0.015 |

| SMILES | z-score |
| --- | --- |
| COC(=O)C(C)N(C#N)c1nc(NC(C)C)nc(SC)n1 (stereo not given) | -1.22 |
| CCOc1c(Cl)cc(/C=N/NC(N)=S)cc1OC | 0.0379 |
| Cc1c(C(=O)OC2CCC(C)CC2)[nH]c2c1C(=O)CCC2 (stereo not given) | -0.601 |
| CCOC(=O)c1c(-c2ccccc2)csc1NC(=O)C(C)NCc1ccco1 (stereo not given) | -0.0896 |
| COC(=O)c1oc2ccc(Cl)cc2c1N | 0.041 |
| CCOc1ccc(NC(=S)N2CCC(N(C)CC3CCCO3)CC2)cc1 (stereo not given) | -0.287 |
| CC(C)N(c1ccccc1)c1ncnc(NCCC(=O)O)c1[N+](=O)[O-] | -0.384 |
| COC(=O)C1=NN(c2ccc(C)cc2)C2(S1)SC(C(C)=O)=C(C)N2c1ccccc1 (stereo not given) | -0.0607 |
| Clc1ccc(-c2nc3nc4ccccc4nc3n2Cc2ccco2)cc1 | 0.139 |
| C[C@H](NC(=O)NC1CCCc2ccccc21)C(=O)O (stereo not given in full) | -0.0913 |
| COc1ccc(S(=O)(=O)N(CCc2ccccc2)CC(=O)NC(C)C)cc1 | -0.387 |
| c1ccc2c(c1)N1CCN=C1N2CCN1CCCCC1 | -0.329 |
| COc1ccc(C(=O)/C=C/c2ccc(OC)c(Cn3nnc4ccccc43)c2)cc1 | -0.713 |
| Cc1c(C#N)c(N=CN(C)C)c(C(=O)c2ccccc2)n1-c1ccc(Br)cc1 | -0.637 |
| CCOP(=O)(OCC)C(C#N)=C1SCN(c2ccccc2)CS1 | -0.315 |
| CN1CCN(c2ccc([N+](=O)[O-])cc2C(=O)c2ccc(Cl)cc2)CC1 | -0.238 |
| CC(C)CC(=O)Nc1ccc2c(c1)oc1ccccc12 | -0.0658 |
| O=C(CN1CCN(Cc2ccccc2)CC1)Nc1ccc([N+](=O)[O-])cc1C(=O)Nc1ccccc1F | -0.373 |
| COC(=O)C1(CCSC)NC(c2ccc(O)cc2)C2C(=O)N(c3ccc4c(c3)OCCO4)C(=O)C21 (stereo not given) | -0.167 |
| Cc1cccc(-c2c3c(=O)n(C)c(=O)n(C)c3c3nnc4ccccc4n23)c1 | 0.784 |
| CCOC(=O)N1CCN(C(=O)CSCc2ccc(Cl)cc2)CC1 | 0.0343 |
| Cn1c(=O)n(C)c2cc([N+](=O)[O-])c(N3CCN(C(=O)c4ccccc4Cl)CC3)cc21 | -0.0103 |
| COc1cc(C2NC(=O)NC(C)=C2C(=O)NCc2ccccc2)c(Cl)cc1O (stereo not given) | 0.0361 |

| SMILES | z-score |
| --- | --- |
| CC(CN1CCOCC1)OC(=O)c1cccc(Br)c1 (stereo not given) | -1.01 |
| C/C(=N/NC(=O)Cc1cccc2ccccc12)c1cccs1 | -0.221 |
| Cc1nc2c(C)cccc2cc1C(=O)N/N=C/c1cccc([N+](=O)[O-])c1 | -0.361 |
| CC1CCCN(CCSc2ccc(Cl)cc2)C1 (stereo not given) | -0.781 |
| O=C(NCCc1c[nH]c2ccccc12)c1cnc2sccn2c1=O | 0.161 |
| N=c1oc2cc(O)ccc2cc1C(=O)Nc1nc2ccccc2s1 | 0.0207 |
| N#CCCn1cnc2c(=S)nc[nH]c21 | 0.0528 |
| Cc1nn2c(-c3ccccc3)ccnc2c1-c1ccccc1 | -0.391 |
| Cc1ccnc(SCC(=O)N2CCN(c3ccccc3)CC2)n1 | -0.0893 |
| CC1CCCCN1C(=O)NC12CC3CC(CC(C3)C1)C2 (stereo not given) | -0.518 |
| COCC(=O)Nc1nc(-c2ccc(C)cc2)c(C)s1 | 0.166 |
| CCCCCCCCNC(=O)CCNC(=O)c1ccc(C(C)(C)C)cc1 | -0.0861 |
| O=C(COC(=O)c1sc2ccccc2c1Cl)NC1CCCCC1 | -0.479 |
| COC(=O)C(C(=O)N1CCN(C)CC1)C1CCCCCC1 (stereo not given) | -0.0578 |
| COc1cccc(C(=O)Nc2cc3c(cc2C(C)=O)OCCO3)c1 | -0.187 |
| Cc1nc2ccccc2c(=O)n1NC(=O)Nc1ccccc1 | -0.194 |
| OC1CCCN(Cc2ccc3ccc4cccc5ccc2c3c45)C1 (stereo not given) | 1.48 |
| COc1ccc(CNC(=O)CCc2nc(-c3ccccc3F)no2)c(OC)c1 | -0.46 |
| O=C(CN1CCOCC1)NC1C2CC3CC(C2)CC1C3 (stereo not given) | 0.182 |
| COc1cccc(C=Nc2cc(C)cc(C)c2)c1O | -0.66 |
| COc1cccc(-c2nnc(NC(=O)C3CCCCC3)o2)c1 | -0.375 |
| O=C1c2ccccc2C(=O)N1OCc1cccc(Cl)c1 | -0.573 |
| O=c1[nH]c(CN(CCO)CCO)nc2c1C1(CCCCC1)Cc1ccccc1-2 | -0.162 |
